# Results taken from PubChem BioAssay (NCATS).
# “And” between values parts separate entries of the source, which are not always exact repeats. Identical values can stand only once. Inconclusive means that the source gave no clear call. Such entries were picked first, then a sample of the others. Where the call is inconclusive, the potency comes from a doubtful curve fit. The source made the active and inactive calls. Calls follow the shape of the dose curve; as a rule, active = well fitted curve in the direction sought with a large enough effect; inconclusive = small, poorly fitted or top-dose-only effect, or another doubt; inactive = no such curve, though single readings can be large; an effect the other way counts as inactive or inconclusive.
# Columns and labels:
# [1] = biological target: Cytochrome P450 3A7 (Homo sapiens) (UniProt P24462); experiment: Cytochrome P450 family 3 subfamily A member 7 (CYP3A7) small molecule antagonists: luciferase biochemical qHTS assay (AID 1963596); also: nearly all actives have a fitted effect of over 40% in size
# Sequence of UniProt P24462 (P24462 whole entry, looked up): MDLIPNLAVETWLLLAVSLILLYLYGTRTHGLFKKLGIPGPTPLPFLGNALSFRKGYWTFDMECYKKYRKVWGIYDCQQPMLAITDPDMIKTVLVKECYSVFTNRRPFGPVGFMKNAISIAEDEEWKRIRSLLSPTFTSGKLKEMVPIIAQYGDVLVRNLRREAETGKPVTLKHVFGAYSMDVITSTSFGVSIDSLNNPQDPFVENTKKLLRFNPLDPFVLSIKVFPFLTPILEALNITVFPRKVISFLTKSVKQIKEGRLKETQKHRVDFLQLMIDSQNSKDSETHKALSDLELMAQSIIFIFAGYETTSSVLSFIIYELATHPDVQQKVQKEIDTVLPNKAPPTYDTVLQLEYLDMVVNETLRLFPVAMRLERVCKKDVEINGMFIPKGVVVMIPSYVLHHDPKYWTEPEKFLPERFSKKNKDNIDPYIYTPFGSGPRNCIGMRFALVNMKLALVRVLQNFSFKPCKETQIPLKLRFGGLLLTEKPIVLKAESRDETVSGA
# How it was run: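 Luminescence from luciferin released by CYP3A7 from a proluciferin substrate, read 20 min after detection reagent. Compound and enzyme-substrate mix sat 10 min before NADPH regeneration solution; reaction ran 1 h at room temperature.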
# [2] = Viability qHTS for spleen associated tyrosine kinase inhibitor (SYKi) naive MV4-11 cells (AID 1963823); also: nearly all actives have a fitted effect of over 40% in size
# How it was run: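 In this viability screen, compounds acted on SYK inhibitor naive MV4-11 cells for three days (72 hr, 37 C). Remaining viable cells were measured by CellTiter-Glo luminescence following a 10 min room-temperature development.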
# [3] = Viability qHTS for spleen associated tyrosine kinase inhibitor (SYKi) drug resistant MV4-11 cells (AID 1963824); also: nearly all actives have a fitted effect of over 35% in size
# How it was run: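 SYK inhibitor-resistant MV4-11 AML cells, 500 per well, added to predispensed compounds and incubated 72 hr at 37 C, 5% CO2. Viability measured by CellTiter-Glo luminescence after 10 min at room temperature.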
# [4] = Cellular viability qHTS for adrenocortical cancer (ACC) cell line SW-13 (AID 1963989); conditions: SW-13 ACC cells viability, CellTiter-Glo, 48 h; activity (max response): stronger effect = lower value; also: nearly all actives have a fitted effect of over 65% in size;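 as to activity (max response): cells grown in serum-free medium with ITS supplement; % is scaled to controls: 0 for no effect and ±100 for the full control effect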
# How it was run: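 Luminescent ATP read-out (CellTiter-Glo, 20 min at room temperature) measured metabolically competent SW-13 cells after 48 h compound treatment. Final concentrations spanned up to 46 uM; bortezomib served as positive control.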
# [5] = Cellular viability qHTS for adrenocortical cancer (ACC) cell line NCI-H295R (AID 1963990); conditions: CellTiter-Glo ATP luminescence, 48 h; activity change, negative = viability loss: at 46.1 µM (top of the series); also: nearly all actives have a fitted effect of over 60% in size;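 as to activity change, negative = viability loss: 0% = DMSO only wells and -100% = full killing with cytotoxic reference compound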
# How it was run: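 IC50 and maximal efficacy derive from four-parameter logistic modelling of titration curves, with reads scaled between DMSO-only wells (0%) and doxorubicin hydrochloride (100% inhibition). Compounds spanned up to 46 uM over 48 h.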
# Potency is read from the fitted curve at half-maximal effect; tags tell the direction and shape of the fitted curve.
structure (smiles),measurement,setting,value
CCN1CCN(C(c2ccc(Cl)cc2)c2ccc(Cl)cc2)CC1,Potency,[1],inactive
N#Cc1ccccc1-c1cc(-c2ccccn2)cn(-c2ccccc2)c1=O,Potency,[1],"inconclusive: 12 µM [inhibitor, partial curve]"
COc1cc(C[C@@H](C)N)c(OC)cc1Br,Potency,[1],"inconclusive: 3.65 µM [inhibitor, full curve]"
same,Potency,[2],inactive
same,Potency,[3],"inconclusive: 0.0063 µM [rising, full curve]"
CNC(C)Cc1ccc2c(c1)OCO2 (configuration not stated),Potency,[1],"inconclusive: 2.46 µM [inhibitor, full curve]"
same,Potency,[2],"inconclusive: 84.2 µM [cytotoxic, single point]"
same,Potency,[3],"inconclusive: 42.2 µM [cytotoxic, partial curve]"
NC(=O)c1cc([N+](=O)[O-])cc([N+](=O)[O-])c1,Potency,[1],active: 11 µM
same,Potency,[2],"inconclusive: 11.9 µM [cytotoxic, partial curve, poor fit]"
same,Potency,[3],"inconclusive: 21.1 µM [cytotoxic, partial curve, poor fit]"
CN1C(=O)CN=C(c2ccccc2)c2cc([N+](=O)[O-])ccc21,Potency,[1],inactive
COc1cc(CC#N)cc(OC)c1OC,Potency,[1],"inconclusive: 12.3 µM [inhibitor, partial curve]"
same,Potency,[2],"inconclusive: 0.0038 µM [rising, full curve]"
same,Potency,[3],"inconclusive: 0.0038 µM [rising, full curve]"
Cc1sc2c(c1C)C(c1ccc(Cl)cc1)=NC(CC(=O)Nc1ccc(O)cc1)c1nnc(C)n1-2 (configuration not stated),Potency,[1],inactive
same,Potency,[2],"inconclusive: 130 nM [cytotoxic, full curve] and active: 148 nM"
same,Potency,[3],"inconclusive: 0.13 µM [cytotoxic, full curve]"
same,Potency,[4],"inconclusive: 11.2 µM [cytotoxic, partial curve]"
same,Potency,[5],"inconclusive: 1.58 µM [cytotoxic, full curve]"
COc1ccc2c3c1O[C@H]1[C@@H](O)C=C[C@H]4[C@@H](C2)N(C)CC[C@@]341,Potency,[1],"inconclusive: 1.97 µM [inhibitor, full curve]"
same,Potency,[2],active: 37.8 µM
same,Potency,[3],active: 30 µM
same,Potency,[4],active: 14.1 µM
Cc1[nH]c2ccc(Cl)cc2c1CCN(C)C,Potency,[1],"inconclusive: 7.94 µM [inhibitor, partial curve]"
same,Potency,[2],"inconclusive: 16.4 µM [cytotoxic, partial curve]"
same,Potency,[3],"inconclusive: 18.4 µM [cytotoxic, partial curve]"
Cc1c(N2C(=O)[C@@H]3[C@H](O)CCN3C2=O)ccc(C#N)c1Cl,Potency,[1],"inconclusive: 39.8 µM [inhibitor, single point]"
O=C(O)c1cc(Oc2ccc(C(F)(F)F)cc2Cl)ccc1[N+](=O)[O-],Potency,[1],"inconclusive: 19.5 µM [inhibitor, partial curve, poor fit]"
same,Potency,[2],inactive
same,Potency,[3],"inconclusive: 33.5 µM [cytotoxic, single point]"
same,Potency,[4],"inconclusive: 29.1 µM [cytotoxic, single point]"
same,Potency,[5],inactive
CC(CC(C#N)(c1ccccc1)c1ccccc1)N(C)C (configuration not stated),Potency,[1],"inconclusive: 3.15 µM [inhibitor, single point]"
same,Potency,[2],"inconclusive: 21.7 µM [cytotoxic, partial curve]"
same,Potency,[3],"inconclusive: 24.3 µM [cytotoxic, partial curve]"
same,activity (max response),[4],inactive: -32%
CCC1(CCC(C)C)C(=O)NC(=O)NC1=O,Potency,[1],"inconclusive: 2.2 µM [inhibitor, full curve]"
same,Potency,[2],"inconclusive: 26.8 µM [cytotoxic, partial curve, poor fit]"
same,Potency,[3],"inconclusive: 30 µM [cytotoxic, partial curve]"
O=[N+]([O-])c1cc([As](=O)(O)O)ccc1O,Potency,[1],"inconclusive: 4.9 µM [inhibitor, partial curve]"
same,Potency,[2],"inconclusive: 15 µM [cytotoxic, single point]"
same,Potency,[3],inactive
CCc1c(C(=O)C(N)=O)c2c(OCC(=O)OC)cccc2n1Cc1ccccc1,Potency,[1],"inconclusive: 12.6 µM [inhibitor, partial curve]"
same,Potency,[2],"inconclusive: 2.59 µM [cytotoxic, full curve]"
Nc1nc(N)nc(NC2CC2)n1,Potency,[1],"inconclusive: 30.9 µM [inhibitor, single point]"
same,Potency,[2],"inconclusive: 33.5 µM [cytotoxic, single point]"
